Source: PubChem BioAssay AID624417 (National Center for Advancing Translational Sciences (NCATS), 2012)
Out of some 410,000 compounds screened, about 6,400 (1.6%) were called active. Inconclusive results, whose numbers are uncertain, are shown with a selection of clear calls. Calls follow the shape of the dose curve; as a rule, active = well fitted inhibition curve with a large enough effect; inconclusive = small, poorly fitted or top-dose-only effect; inactive = no such curve, though single readings can be large or run the other way. Potencies of inconclusive entries are left out as doubtful fits.

Target: Glucagon-like peptide 1 receptor (Homo sapiens) (UniProt P43220)
Sequence of UniProt P43220 (P43220 whole entry, looked up): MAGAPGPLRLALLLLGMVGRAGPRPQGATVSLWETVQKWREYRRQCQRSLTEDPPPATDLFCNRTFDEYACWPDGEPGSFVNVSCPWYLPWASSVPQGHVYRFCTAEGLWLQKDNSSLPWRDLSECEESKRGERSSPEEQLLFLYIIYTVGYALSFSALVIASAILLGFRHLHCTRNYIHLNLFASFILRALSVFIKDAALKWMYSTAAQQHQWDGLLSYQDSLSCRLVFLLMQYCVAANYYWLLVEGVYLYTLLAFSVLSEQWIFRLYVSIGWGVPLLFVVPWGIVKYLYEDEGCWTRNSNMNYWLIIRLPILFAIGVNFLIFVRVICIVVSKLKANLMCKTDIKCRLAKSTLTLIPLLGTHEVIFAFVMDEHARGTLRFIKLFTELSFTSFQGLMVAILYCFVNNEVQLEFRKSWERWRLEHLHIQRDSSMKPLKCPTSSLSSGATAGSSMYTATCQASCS
Assay: qHTS of GLP-1 Receptor Inverse Agonists (Inhibition Mode); also: nearly all actives have a fitted effect of over 55% in size
Settings: HEK293 GLP-1R CRE-luciferase, luminescence, 24 h, GLP-1R form is constitutively active; activity change, negative = inhibition: at 38.3 µM (top of the series) unless noted
Summary of the method: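 Constitutively active GLP-1R drives a cAMP-responsive luciferase in stably transfected HEK293 cells; test compounds are added after overnight (12 h) attachment and left 24 hr, and signal loss in luminescence marks inhibition.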
% is scaled to controls: 0 for no effect and ±100 for the full control effect; potency is read from the fitted curve at half-maximal effect; tags tell the direction and shape of the fitted curve.

SMILES | Potency | activity change, negative = inhibition
Cc1cccnc1C(NC(=O)C1CCN(Cc2ccc3ccccc3n2)CC1)c1ccc(Cl)cc1 (stereo unspecified) | inconclusive [inhibitor, single point] | 
CC(C)C[C@H](NC(=O)c1nc[nH]c1C(=O)N1CCN(c2ccccc2)CC1)C(=O)OCc1ccccc1 |  | inactive: -13.1%
COc1ccc([C@H]2C[C@H](O)[C@@H](n3cc(-c4ccc(F)cc4)nn3)CN2C(=O)C2CCCCC2)cc1 |  | inactive: -27.1%
CCCSC1=C(C#N)C(c2ccc(O)c(OC)c2)CC(=O)N1 (stereo unspecified) |  | inactive: -17.8%
COc1ccc(NC(=O)C2CCCN(S(=O)(=O)c3ccc4[nH]c(=O)ccc4c3)C2)cc1OC (stereo unspecified) | inactive | 
CN(C)C(CNC(=O)CCc1nc2sc3c(c2c(=O)[nH]1)CCCC3)c1ccccc1 (stereo unspecified) | inconclusive [inhibitor, single point] | 
Cc1ccc2ccc3cc(C(=O)Nc4ccc(C)c(F)c4)nc3c2[nH]1 | inconclusive [inhibitor, partial curve, poor fit] | 
Cc1ccc(-c2cc(C(=O)Nc3ccc(S(=O)(=O)Nc4nccs4)cc3)c3ccccc3n2)c(C)c1 | inconclusive [inhibitor, single point] | 
CC(C)(C)C1CCc2c(C(=O)N/N=C/c3cccs3)csc2C1 (stereo unspecified) | inconclusive [inhibitor, partial curve, poor fit] | 
CN(CC1CCCO1)S(=O)(=O)c1ccc(C(=O)Nc2ccc(F)cc2)cc1 (stereo unspecified) | inconclusive [inhibitor, partial curve] | 
CCN(CC)c1ccc(CN2CCC(C(=O)NCc3ccc(C)cc3)CC2)cc1 | inconclusive [inhibitor, partial curve, poor fit] | 
C[C@@H]1CN([C@@H](C)CO)C(=O)c2c(c3ccccc3n2C)-c2ccccc2CO[C@H]1CN(C)C(=O)C1CC1 |  | inactive: -23%
C[n+]1c(-c2ccccc2)cc2c(=Cc3ccccc3)c3ccccc3n21 | inconclusive [inhibitor, partial curve, poor fit] | 
Cc1ccc(-c2nc3ccc(C)cn3c2Cc2ccsc2)cc1 | inconclusive [inhibitor, single point] | 
COc1ccc(CNC(=O)CCc2c(C)nn(-c3ccc(N4CCOCC4)nn3)c2C)cc1 |  | inactive: 5.01%
COc1ccc(CCNC(=O)Nc2ccc3c(c2)c(=O)n(C)n3Cc2ccc(Cl)cc2)cc1OC | inconclusive [inhibitor, single point] | 
N#Cc1c(N)n(-c2ccc(N)cc2)c2nc3ccccc3nc12 |  | inactive: 64.6%
O=C(O)c1ccc(N/N=C/c2ccc3nccnc3c2)cc1 | inconclusive [inhibitor, full curve, poor fit] | 
Cc1ccc(CNC(=O)c2cc(Sc3ccc(F)cc3F)nc3ccccc23)cc1 |  | inactive: -1.96%
CC1CCN(c2ccc(C(=O)NCc3ccco3)cc2[N+](=O)[O-])CC1 | inconclusive [inhibitor, single point] | 
COCCn1c(C)cc(C(=O)COc2ccc(N(C)S(=O)(=O)c3ccc(C)cc3)cc2)c1C | inconclusive [inhibitor, partial curve, poor fit] | 

SMILES | Potency | activity change, negative = inhibition
COc1ccc(C(NC(=O)CN2CCCCCC2)c2ccc(OC)cc2)cc1 | inconclusive [inhibitor, partial curve, poor fit] | 
Cc1cccc(N2CCN(C(=O)/C=C/c3cccs3)CC2C)c1 (stereo unspecified) | inconclusive [inhibitor, single point] | 
COc1ccc(Cl)cc1NC(=O)CN1C(=O)CSc2ccc(S(=O)(=O)N3CCCC3)cc21 | inconclusive [inhibitor, partial curve, poor fit] | 
CCCc1nn2c(=O)cc(O)nc2s1 |  | inactive: 6.17%
CCNC(=S)N1CCC(Cc2ccccc2)CC1 | inconclusive [inhibitor, partial curve] | 
O=c1ccc2ccccc2c2ccccc12 | inconclusive [inhibitor, full curve, poor fit] | 
COc1ccc(Cn2nnc3ccccc32)cc1 | inconclusive [inhibitor, single point] | 
Cc1ccc2c(c1)C(=O)CC(c1ccc3c(c1)OCCO3)O2 (stereo unspecified) | inconclusive [inhibitor, single point] | 
CCCCCNC(=O)C(c1ccc(OC)cc1)n1c(=O)c(-c2ccco2)nc2ccccc21 (stereo unspecified) | inconclusive [inhibitor, single point] | 
O=C(/C=C/c1ccco1)NC1=NCCS1 | inconclusive [inhibitor, single point] | 
c1ccc(C2[C@H]3CN(Cc4cccnc4)[C@H](c4ccccc4)C34CC2(c2ccccc2)C4)cc1 (stereo partly specified) | inconclusive [inhibitor, partial curve, poor fit] | 
COc1cccc(CN2CCc3ccc(NC(=O)CCc4ccc(C)cc4)cc3C2)c1O | inconclusive [inhibitor, single point] | 
O=C(Nc1ccccc1)N(Cc1cccs1)c1ccc(Cl)cc1 | inconclusive [inhibitor, single point] | 
CCOc1ccc(NC(=O)CC2C(=O)N(c3cccc(C)c3)C(=O)N2CCC2=CCCCC2)cc1 (stereo unspecified) | inconclusive [inhibitor, single point] | 
CSc1ccc(/C=C/c2nc3ccccc3n2S(=O)(=O)c2ccc(F)c(C)c2)cc1 | inconclusive [inhibitor, single point] | 
O=C(NCCn1c(C(F)(F)F)nc2ccccc21)[C@H]1CCCN1c1nc(CN2CCCCC2)cs1 |  | inactive: 16%
Cc1c(NC(=S)NCc2ccc(F)cc2)cccc1[N+](=O)[O-] | inconclusive [inhibitor, single point] | 
Cc1ccc2c(NC(=S)NC(=O)c3ccccc3)cccc2n1 |  | inactive: 1.14%
COc1ccccc1NC(=S)N1CCC(C(=O)c2ccc(F)cc2)CC1 | inconclusive [inhibitor, partial curve, poor fit] | 
COc1ccc(Nc2nnc(-c3ccncc3)s2)cc1Cl | inconclusive [inhibitor, single point] | 
